From paper PMC4336329 (PLoS ONE, 2015)
Among all 310,000 compounds or so, about 14,000 (4.5%) showed an effect of 50% or more. The effect is printed as a negative number. This is one part of the list.

target: human ether-à-go-go-related gene (hERG) potassium channel (human, UniProt Q12809); test: primary screen, population patch clamp on CHO cells stably expressing hERG
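Note: peak tail current of the secondary pulse compared with the same well before compound.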

human ether-à-go-go-related gene (hERG) potassium channel, sequence (Q12809 whole entry, looked up): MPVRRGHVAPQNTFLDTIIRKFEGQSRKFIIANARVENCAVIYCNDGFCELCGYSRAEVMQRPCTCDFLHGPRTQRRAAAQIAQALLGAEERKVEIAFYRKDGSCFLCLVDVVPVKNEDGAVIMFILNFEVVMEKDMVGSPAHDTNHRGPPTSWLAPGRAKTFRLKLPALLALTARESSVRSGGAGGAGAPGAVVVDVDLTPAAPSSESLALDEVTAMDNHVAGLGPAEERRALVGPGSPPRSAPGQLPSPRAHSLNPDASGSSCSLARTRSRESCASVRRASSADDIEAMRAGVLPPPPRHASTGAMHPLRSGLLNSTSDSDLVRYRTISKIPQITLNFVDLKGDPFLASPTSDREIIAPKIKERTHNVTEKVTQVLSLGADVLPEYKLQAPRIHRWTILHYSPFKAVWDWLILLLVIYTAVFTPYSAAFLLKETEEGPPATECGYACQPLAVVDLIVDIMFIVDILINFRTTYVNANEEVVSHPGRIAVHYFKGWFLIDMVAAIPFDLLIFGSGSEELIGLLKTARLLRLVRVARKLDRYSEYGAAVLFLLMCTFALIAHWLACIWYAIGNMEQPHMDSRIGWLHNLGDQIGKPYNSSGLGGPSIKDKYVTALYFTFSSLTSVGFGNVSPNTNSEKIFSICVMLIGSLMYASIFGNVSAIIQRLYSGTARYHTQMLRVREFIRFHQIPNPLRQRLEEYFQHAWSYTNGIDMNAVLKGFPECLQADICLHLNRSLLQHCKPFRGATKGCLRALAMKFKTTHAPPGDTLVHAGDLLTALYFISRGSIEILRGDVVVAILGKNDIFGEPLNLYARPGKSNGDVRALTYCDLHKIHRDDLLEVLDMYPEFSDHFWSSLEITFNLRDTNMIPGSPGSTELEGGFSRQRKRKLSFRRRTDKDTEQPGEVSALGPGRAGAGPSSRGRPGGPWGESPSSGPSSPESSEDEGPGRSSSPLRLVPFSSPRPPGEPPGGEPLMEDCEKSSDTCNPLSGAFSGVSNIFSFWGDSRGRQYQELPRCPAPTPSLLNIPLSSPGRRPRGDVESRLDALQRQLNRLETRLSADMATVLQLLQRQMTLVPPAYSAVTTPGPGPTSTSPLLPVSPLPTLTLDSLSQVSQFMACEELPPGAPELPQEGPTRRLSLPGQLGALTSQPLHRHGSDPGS

Going from `C=CCN(CC=C)C(=O)C1CCN(S(=O)(=O)c2ccc(N3CCCC3=O)cc2)CC1` to `COc1ccc(CCNC(=O)C2CCN(S(=O)(=O)c3ccc(-n4cnnn4)cc3)CC2)cc1OC`, the “hERG current change (%, negative = inhibition) at 10uM” value falls from 5.01% to -13%.

Going from `O=C(NCCc1ccc(F)cc1)C1CCCCC1` to `Fc1ccc(CCN2CCN=C2Nc2ccccc2)cc1`, the “hERG current change (%, negative = inhibition) at 10uM” value falls from 12.1% to -43.2%.

First: Cc1c(NC(=O)c2cc3c(=O)n4ccccc4nc3s2)c(=O)n(-c2ccccc2)n1C
Second: Cc1ccccc1-c1cc(C(=O)Nc2sc(C(=O)OC(C)C)c(C)c2C#N)c2ccccc2n1
The “hERG current change (%, negative = inhibition) at 10uM” value of the first is lower: 8.11% for the first, 16.7% for the second.

Compared with `Cc1cccc(CNc2ncnc3ccc(-c4ccccc4Cl)cc23)c1`, `CCOc1ccccc1NC(=O)c1nc(S(=O)(=O)Cc2cccc(C)c2)ncc1Cl` is lower in “hERG current change (%, negative = inhibition) at 10uM” value: 2.9% for the first, 1.74% for the second.

Going from `Nc1c(Cl)cc(C2=NCCn3c2c2ccc(C(F)(F)F)cc2[n+]3[O-])cc1Cl` to `CN(Cc1ccncn1)C(=O)C1CCC(=O)N(Cc2cccc(C(F)(F)F)c2)C1` (stereo not drawn), the “hERG current change (%, negative = inhibition) at 10uM” value rises from -26.1% to -5.2%.

Going from `O=C(NC1CCN(Cc2ccccc2)CC1)c1cc(Br)c(Br)[nH]1` to `CCOC(=O)c1ccc(NC(=O)N2CCN(Cc3ccccc3)CC2)cc1`, the “hERG current change (%, negative = inhibition) at 10uM” value falls from -2.75% to -11.1%.

Compared with `Cc1oc(-c2ccccc2)nc1C(=O)OCC(=O)NCc1ccccc1`, `O=C(OCc1nc2ccccc2[n+]([O-])c1C(=O)c1ccccc1)c1cccs1` is higher in “hERG current change (%, negative = inhibition) at 10uM” value: -23.9% for the first, 8.02% for the second.

Compared with `Cc1ccc(-n2cnc(=O)c3cccnc32)cc1`, `COc1ccccc1NC(=O)CSc1nnc2ccc(-c3cccnc3)nn12` is lower in “hERG current change (%, negative = inhibition) at 10uM” value: 1.62% for the first, -41.6% for the second.

Going from `O=C(Nc1nc2ccccc2[nH]1)C12CC3CC(CC(C3)C1)C2` to `O=C(C1CCN(S(=O)(=O)c2cccc3nsnc23)CC1)N1CC=C(c2ccccc2)CC1`, the “hERG current change (%, negative = inhibition) at 10uM” value falls from 14.4% to -25.7%.

Compared with `Cc1cc(OC(=O)N2CCOCC2)cc(C)c1Cl`, `O=C(CCCSc1nnc(Nc2ccccc2F)s1)N1CCOCC1` is lower in “hERG current change (%, negative = inhibition) at 10uM” value: 1.27% for the first, -2.97% for the second.

First: Cc1cc(Cl)ccc1OCC(=O)N/N=C/c1ccc(OC2OC(CO)C(O)C(O)C2O)cc1 (stereo not drawn)
Second: CCc1ccc(Cn2nnc(C(=O)Nc3ccc(OC)cc3OC)c2N)cc1
The “hERG current change (%, negative = inhibition) at 10uM” value of the first is lower: -1.22% for the first, 12.8% for the second.

First: CCN(CC(=O)Nc1c(F)cccc1F)C(=O)C1CCCN(C(=O)c2ccc(Cl)cc2)C1 (stereo not drawn)
Second: CN1CCN(C(=O)c2ccc(CS(=O)(=O)c3c(Cl)cccc3Cl)o2)CC1
The “hERG current change (%, negative = inhibition) at 10uM” value of the first is lower: -31.5% for the first, -5.15% for the second.

Going from `Cc1c(C(=O)N2CCCC2)oc2c1-c1[nH]ncc1CC2` to `CCOC(=O)C1CCCN(C(=O)CSc2nc(C)cc(C)n2)C1` (stereo not drawn), the “hERG current change (%, negative = inhibition) at 10uM” value rises from 4.93% to 23.2%.

Going from `CCCc1ccc(OCc2ccc(C(=O)Nc3cccc(C)n3)o2)c(OC)c1` to `Cc1ccc(CNC(=O)C(CC(C)C)OC(=O)c2ccco2)cc1` (stereo not drawn), the “hERG current change (%, negative = inhibition) at 10uM” value falls from 16.4% to -6.6%.

Going from `CC(=O)CNc1ccc(S(=O)(=O)N/N=C/c2ccccc2)cc1` to `O=C(CC(NS(=O)(=O)c1ccc(Cl)cc1)c1ccco1)NCc1ccco1` (stereo not drawn), the “hERG current change (%, negative = inhibition) at 10uM” value falls from 16.1% to -10.6%.

Compared with `O=C1OCC2=C1C(c1ccccc1)CC(=O)N2c1ccc(F)cc1` (stereo not drawn), `O=C1C=C(c2cccc(OCc3ccccc3)c2)C[C@@H](c2ccc3c(c2)OCO3)C1` is higher in “hERG current change (%, negative = inhibition) at 10uM” value: -7.86% for the first, 2.18% for the second.

Going from `O=c1cc(-c2ccccc2[N+](=O)[O-])oc2ccccc12` to `CC1CCN(c2c([N+](=O)[O-])c(=O)oc3ccccc23)CC1`, the “hERG current change (%, negative = inhibition) at 10uM” value falls from -3.39% to -12.5%.

Going from `C=CCOn1c(=O)c(-c2ccc(OC)cc2)[n+]([O-])c2ccccc21` to `COc1ccc(C(CC(=O)N2CCN(c3ccccc3)CC2)c2c(O)cc(OC)cc2OC)cc1` (stereo not drawn), the “hERG current change (%, negative = inhibition) at 10uM” value rises from -5.17% to 9.99%.

First: Cc1nc(C(=O)NNC(=O)Nc2ccccc2)cs1
Second: CCCCOc1ccccc1C(=O)NNC(=S)NC(=O)c1ccccc1[N+](=O)[O-]
The “hERG current change (%, negative = inhibition) at 10uM” value of the first is higher: 11.4% for the first, 3.48% for the second.

Compared with `Fc1ccccc1Cc1noc(CN2CCC(OCc3cccnc3)CC2)n1`, `O=C(CCN1CCN(C/C=C/c2ccccc2)CC1)Nc1cccc(F)c1` is lower in “hERG current change (%, negative = inhibition) at 10uM” value: -14.5% for the first, -77.9% for the second.

First: Cc1cc(C)c(C#N)c(N2CCN(S(=O)(=O)Cc3ccccc3)CC2)n1
Second: Cc1nc(N)c(C#N)c(-c2ccccc2Cl)c1C
The “hERG current change (%, negative = inhibition) at 10uM” value of the first is higher: 16.7% for the first, -0.265% for the second.

Going from `O=C(CSc1cccc2cccnc12)Nc1ccc(S(=O)(=O)N2CCOCC2)cc1` to `O=S(=O)(Nc1ccc2c(c1)OCCO2)c1cccc2cccnc12`, the “hERG current change (%, negative = inhibition) at 10uM” value falls from -8.8% to -26.1%.

Compared with `COC(=O)c1cc(OC)c(OC)c(OC)c1[N+](=O)[O-]`, `COc1cc(/C(C#N)=C/c2ccccc2)c([N+](=O)[O-])cc1OC` is higher in “hERG current change (%, negative = inhibition) at 10uM” value: -23.2% for the first, -1.12% for the second.

First: COc1ccccc1NS(=O)(=O)c1cccs1
Second: CCCC(C)C(=O)NCc1ccccc1OC (stereo not drawn)
The “hERG current change (%, negative = inhibition) at 10uM” value of the first is lower: -11.2% for the first, 20.7% for the second.

Compared with `COc1ccc(/C=N/N=C2/NC(=O)CC(C(=O)O)S2)cc1` (stereo not drawn), `CCOC(=O)c1sc(-c2ccc(C)cc2)c(C#N)c1C` is lower in “hERG current change (%, negative = inhibition) at 10uM” value: 11.7% for the first, 8.61% for the second.

First: O=C(Cc1c(Cl)cccc1Cl)NC1=NCCS1
Second: Cc1ccc(OC(C)c2nnc(N)s2)cc1Cl (stereo not drawn)
The “hERG current change (%, negative = inhibition) at 10uM” value of the first is higher: 11.2% for the first, -2.12% for the second.

Compared with `CCc1nc(NC(C)C)c2oc3ccccc3c2n1.Cl`, `Cc1c(N)cccc1-n1cnnn1` is higher in “hERG current change (%, negative = inhibition) at 10uM” value: -6.89% for the first, 13.9% for the second.

Compared with `O=C(CSc1nc(=O)n(CCCN2CCOCC2)c2c1CCCC2)Nc1ccc(Cl)cc1`, `CN(C)C(CNC(=S)Nc1ccc(F)cc1)c1cccnc1` (stereo not drawn) is higher in “hERG current change (%, negative = inhibition) at 10uM” value: -77.7% for the first, 4.11% for the second.

With `C(=N\N=C\c1cccnc1)/c1cccnc1` the “hERG current change (%, negative = inhibition) at 10uM” value was -3.48%.
